Measurements reported in the supplement of paper PMC10037445.
Over roughly 2,900 compounds, “IRF Lucia reporter activity, fold change vs agonist alone” has its median near 0.9; the highest 2% begin near 2.8. The list shows a part of the results.

How the values were obtained:
[1] = test system: RAW-Dual; assay: IRF Lucia reporter activity, fold change vs agonist alone; cytotoxicity flag (confluency mask): not cytotoxic; higher = enhanced IRF activity
How it was run: (§1)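 Library stock was pin-tooled at 50 nL into 384-well plates of RAW-Dual macrophages (50,000 cells/well, DMEM), followed 1 h later by a PRR agonist, and the cells were kept at 37 °C, 5% CO2. Supernatant collected after 20 hours was read for IRF by QuantiLuc luminescence and for NF-κB by QuantiBlue absorbance at 620 nm. Reporter activity is fold change over agonist-alone wells, and a well counted as cytotoxic when its IncuCyte confluency was below 70% of agonist controls in both mask sets.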

[2] = test system: RAW-Dual; assay: IRF Lucia reporter activity, fold change vs agonist alone; higher = enhanced IRF activity; conditions: cytotoxicity flag (confluency mask): not cytotoxic, agonist: MPLA (TLR4) […]
How it was run: as §1

[3] = test system: RAW-Dual; assay: IRF Lucia reporter activity, fold change vs agonist alone; cytotoxicity flag (confluency mask): cytotoxic (confluency <70% of control); higher = enhanced IRF activity
How it was run: as §1

[4] = agonist: 3'3'-cGAMP (STING) 10 ug/mL
[5] = library stock concentration (final ~1000-fold dilution): 10 mM

With `COc1cc(C2OCC3C(c4cc(OC)c(OC5OC(CO)C(O)C(O)C5O)c(OC)c4)OCC23)cc(OC)c1OC1OC(CO)C(O)C(O)C1O` (configuration not stated) (library stock concentration (final ~1000-fold dilution): 10 mM) the “IRF Lucia reporter activity” value [1, 4] was 0.893 and the “IRF Lucia reporter activity” value ([1]; agonist: LPS (TLR4) 0.1 ug/mL) was 0.998.

`Nc1ccncc1` (library stock concentration (final ~1000-fold dilution): 10 mM) was tested, and the “IRF Lucia reporter activity” value [1, 4] was 1.04 and the “IRF Lucia reporter activity” value ([1]; agonist: LPS (TLR4) 0.1 ug/mL) was 1.25.

In the case of `Nc1ccncc1`, the “IRF Lucia reporter activity” value [2, 5] is reported as 1.05.

`CC12CCC3C(CCC4CC(O)CCC43C)C1CCC2=O` (configuration not stated) was tested, and the “IRF Lucia reporter activity” value [2, 5] was 1.19.

For `CC12CCC3C(CCC4CC(O)CCC43C)C1CCC2=O` (configuration not stated) (library stock concentration (final ~1000-fold dilution): 10 mM), the “IRF Lucia reporter activity” value [1, 4] was 0.851 and the “IRF Lucia reporter activity” value ([1]; agonist: LPS (TLR4) 0.1 ug/mL) was 1.04.

In the case of `CCN1CC2(COC)CCC(OC)C34C5CC6(O)C(OC)CC(OC(C)=O)(C5C6C(=O)c5ccc(OC)cc5)C(C(OC)C23)C14` (configuration not stated) (library stock concentration (final ~1000-fold dilution): 10 mM), the “IRF Lucia reporter activity” value [1, 4] is reported as 0.896 and the “IRF Lucia reporter activity” value ([1]; agonist: LPS (TLR4) 0.1 ug/mL) is reported as 1.22.

With `CCN1CC2(COC)CCC(OC)C34C5CC6(O)C(OC)CC(OC(C)=O)(C5C6C(=O)c5ccc(OC)cc5)C(C(OC)C23)C14` (configuration not stated) the “IRF Lucia reporter activity” value [2, 5] was 1.01.

With `Fc1cc(F)c2c(c1)C1C=CCC1C(c1cccnc1)N2` (configuration not stated) the “IRF Lucia reporter activity” value [2, 5] was 0.0979.

`Fc1cc(F)c2c(c1)C1C=CCC1C(c1cccnc1)N2` (configuration not stated) (library stock concentration (final ~1000-fold dilution): 10 mM) was tested, and the “IRF Lucia reporter activity” value [1, 4] was 0.0147 and the “IRF Lucia reporter activity” value ([1]; agonist: LPS (TLR4) 0.1 ug/mL) was 0.083.

`O=C(O)CCCc1ccc(N(CCCl)CCCl)cc1` was tested, and the “IRF Lucia reporter activity” value [2, 5] was 0.988.

`O=C(O)CCCc1ccc(N(CCCl)CCCl)cc1` (library stock concentration (final ~1000-fold dilution): 10 mM) was tested, and the “IRF Lucia reporter activity” value [1, 4] was 0.892 and the “IRF Lucia reporter activity” value ([1]; agonist: LPS (TLR4) 0.1 ug/mL) was 1.2.

In the case of `CN(CCC(N)CC(=O)NC1C=CC(n2ccc(N)nc2=O)OC1C(=O)O)C(=N)N.Cl` (configuration not stated), the “IRF Lucia reporter activity” value ([2]; library stock concentration (final ~1000-fold dilution): 10 mM water) is reported as 1.1.

With `CN(CCC(N)CC(=O)NC1C=CC(n2ccc(N)nc2=O)OC1C(=O)O)C(=N)N.Cl` (configuration not stated) (library stock concentration (final ~1000-fold dilution): 10 mM water) the “IRF Lucia reporter activity” value [1, 4] was 0.578 and the “IRF Lucia reporter activity” value ([1]; agonist: LPS (TLR4) 0.1 ug/mL) was 0.594.

With `CC12CCC3C(CC=C4CC(O)CCC43C)C1CCC2=O` (configuration not stated) (library stock concentration (final ~1000-fold dilution): 10 mM) the “IRF Lucia reporter activity” value [1, 4] was 1.03 and the “IRF Lucia reporter activity” value ([1]; agonist: LPS (TLR4) 0.1 ug/mL) was 0.8.

For `CC12CCC3C(CC=C4CC(O)CCC43C)C1CCC2=O` (configuration not stated), the “IRF Lucia reporter activity” value [2, 5] was 0.996.

With `COC(=O)CC(O)(CCC(C)(C)O)C(=O)OC1C(OC)=CC23CCCN2CCc2cc4c(cc2C13)OCO4` (configuration not stated) (library stock concentration (final ~1000-fold dilution): 10 mM) the “IRF Lucia reporter activity” value [3, 4] was 0.0132 and the “IRF Lucia reporter activity” value ([3]; agonist: LPS (TLR4) 0.1 ug/mL) was 0.0156.

With `N#C/C(=C\c1ccc(O)cc1)C(=O)O` (library stock concentration (final ~1000-fold dilution): 10 mM) the “IRF Lucia reporter activity” value [1, 4] was 0.896 and the “IRF Lucia reporter activity” value ([1]; agonist: LPS (TLR4) 0.1 ug/mL) was 1.28.

In the case of `O=C(CBr)c1ccc(O)cc1` (library stock concentration (final ~1000-fold dilution): 10 mM), the “IRF Lucia reporter activity” value [1, 4] is reported as 0.723 and the “IRF Lucia reporter activity” value ([1]; agonist: LPS (TLR4) 0.1 ug/mL) is reported as 0.875.

`O=C(CBr)c1ccc(O)cc1` was tested, and the “IRF Lucia reporter activity” value [2, 5] was 0.678.

For `CCN(C)C(=O)Oc1cccc(C(C)N(C)C)c1` (configuration not stated), the “IRF Lucia reporter activity” value [2, 5] was 1.08.

With `CCN(C)C(=O)Oc1cccc(C(C)N(C)C)c1` (configuration not stated) (library stock concentration (final ~1000-fold dilution): 10 mM) the “IRF Lucia reporter activity” value [1, 4] was 1.03 and the “IRF Lucia reporter activity” value ([1]; agonist: LPS (TLR4) 0.1 ug/mL) was 1.33.

`O=C1C=CCC2C3CCCN4CCCC(CN12)C34` (configuration not stated) was tested, and the “IRF Lucia reporter activity” value [2, 5] was 1.

`O=C1C=CCC2C3CCCN4CCCC(CN12)C34` (configuration not stated) (library stock concentration (final ~1000-fold dilution): 10 mM) was tested, and the “IRF Lucia reporter activity” value [1, 4] was 1.02 and the “IRF Lucia reporter activity” value ([1]; agonist: LPS (TLR4) 0.1 ug/mL) was 0.943.

For `CC1OC(OC2CC(O)C3(CO)C4C(O)CC5(C)C(C6=CC(=O)OC6)CCC5(O)C4CCC3(O)C2)C(O)C(O)C1O.O.O.O.O.O.O.O.O` (configuration not stated), the “IRF Lucia reporter activity” value [2, 5] was 1.06.

With `CC1OC(OC2CC(O)C3(CO)C4C(O)CC5(C)C(C6=CC(=O)OC6)CCC5(O)C4CCC3(O)C2)C(O)C(O)C1O.O.O.O.O.O.O.O.O` (configuration not stated) (library stock concentration (final ~1000-fold dilution): 10 mM) the “IRF Lucia reporter activity” value [1, 4] was 1.07 and the “IRF Lucia reporter activity” value ([1]; agonist: LPS (TLR4) 0.1 ug/mL) was 1.18.

`COC(=O)Nc1nc2ccccc2[nH]1` (library stock concentration (final ~1000-fold dilution): 10 mM) was tested, and the “IRF Lucia reporter activity” value [1, 4] was 1.14 and the “IRF Lucia reporter activity” value ([1]; agonist: LPS (TLR4) 0.1 ug/mL) was 1.04.

`COC(=O)Nc1nc2ccccc2[nH]1` was tested, and the “IRF Lucia reporter activity” value [2, 5] was 1.06.

In the case of `CC(C)OC(=O)C(C)NP(=O)(COC(C)Cn1cnc2c(N)ncnc21)Oc1ccccc1` (configuration not stated) (library stock concentration (final ~1000-fold dilution): 10 mM), the “IRF Lucia reporter activity” value [1, 4] is reported as 1.11 and the “IRF Lucia reporter activity” value ([1]; agonist: LPS (TLR4) 0.1 ug/mL) is reported as 1.34.

In the case of `COc1cc(C(=O)OC2C3C=COC(OC4OC(CO)C(O)C(O)C4O)C3C3(CO)OC23)ccc1O` (configuration not stated) (library stock concentration (final ~1000-fold dilution): 10 mM), the “IRF Lucia reporter activity” value [1, 4] is reported as 0.947 and the “IRF Lucia reporter activity” value ([1]; agonist: LPS (TLR4) 0.1 ug/mL) is reported as 1.07.

`C[N+](C)(C)CCCCCCCCCC[N+](C)(C)C` was tested, and the “IRF Lucia reporter activity” value [2, 5] was 1.13.

In the case of `C[N+](C)(C)CCCCCCCCCC[N+](C)(C)C` (library stock concentration (final ~1000-fold dilution): 10 mM), the “IRF Lucia reporter activity” value [1, 4] is reported as 1.06 and the “IRF Lucia reporter activity” value ([1]; agonist: LPS (TLR4) 0.1 ug/mL) is reported as 1.31.

For `O=C(O)CNC(=O)c1c(O)c2ccccc2n(Cc2ccccc2)c1=O` (library stock concentration (final ~1000-fold dilution): 10 mM), the “IRF Lucia reporter activity” value [1, 4] was 1.11 and the “IRF Lucia reporter activity” value ([1]; agonist: LPS (TLR4) 0.1 ug/mL) was 0.841.

`O=C(O)CNC(=O)c1c(O)c2ccccc2n(Cc2ccccc2)c1=O` was tested, and the “IRF Lucia reporter activity” value [2, 5] was 1.02.
